System: FAP-B binding to fibronectin
Set-up: species or system human

FAP-A269-292: Synthesized peptide of amino acids 269-292 of FAP-A, a conserved fibronectin binding region (GNRQRWFVVWLGTSNDPVDKVAAK)
inhibition of FAP-B binding to fibronectin: completely blocked the binding of FAP-B to fibronectin

Source: patent US6638518B1 (priority 1999, dated 2003)
